# Whole data set: some 2,900 compounds, median “NF-kB SEAP reporter activity, fold change vs agonist alone” near 0.99, cut for the highest 2% near 2.6. Some of the results follow.
# How the values were obtained:
# RAW-Dual [1] = assay: NF-kB SEAP reporter activity, fold change vs agonist alone; higher = enhanced NF-kB activity; settings: library stock concentration (final ~1000-fold dilution): 10 mM
# Outline: (§1)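 Reporter activity is given as fold change relative to agonist-alone wells. To measure it, 50 nL of library stock was pin-tooled onto RAW-Dual macrophages (50,000 cells/well, DMEM, 384-well plates), a PRR agonist followed 1 h later, and cells stayed at 37 °C, 5% CO2. Twenty hours on, supernatant was assayed for IRF (QuantiLuc luminescence) and NF-κB (QuantiBlue, 620 nm absorbance), and wells under 70% of agonist-control IncuCyte confluency in both mask sets were marked cytotoxic.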
# RAW-Dual [2] = assay: NF-kB SEAP reporter activity, fold change vs agonist alone; cytotoxicity flag (confluency mask): not cytotoxic; higher = enhanced NF-kB activity
# Outline: as §1
# RAW-Dual [3] = assay: NF-kB SEAP reporter activity, fold change vs agonist alone; cytotoxicity flag (confluency mask): cytotoxic (confluency <70% of control); higher = enhanced NF-kB activity
# Outline: as §1
# [4] = cytotoxicity flag (confluency mask): not cytotoxic, agonist: Imiquimod (TLR7) […]
# [5] = cytotoxicity flag (confluency mask): not cytotoxic, agonist: MPLA (TLR4) […]
# [6] = agonist: ODN 1826 (TLR9) 0.5 ug/mL
# [7] = agonist: Pam2CSK4 (TLR2/6) 0.1 ug/mL
# [8] = agonist: Pam3CSK4 (TLR2/1) 0.1 ug/mL
# [9] = cytotoxicity flag (confluency mask): cytotoxic (confluency <70% of control), agonist: Imiquimod (TLR7) […]
# [10] = cytotoxicity flag (confluency mask): cytotoxic (confluency <70% of control), agonist: MPLA (TLR4) […]
smiles,measurement,setting,value
CC1(C)OC2CC(=O)OCC23C1CC(=O)C1(C)C3CCC2(C)C(c3ccoc3)OC(=O)C3OC321 (configuration not stated),NF-kB SEAP reporter activity,RAW-Dual [1]; [4],0.952
same,NF-kB SEAP reporter activity,RAW-Dual [1]; [5],1.02
CC1(C)OC2CC(=O)OCC23C1CC(=O)C1(C)C3CCC2(C)C(c3ccoc3)OC(=O)C3OC321 (configuration not stated) (library stock concentration (final ~1000-fold dilution): 10 mM),NF-kB SEAP reporter activity,RAW-Dual [2]; agonist: LPS (TLR4) 0.1 ug/mL,0.941
same,NF-kB SEAP reporter activity,RAW-Dual [2]; [6],0.968
same,NF-kB SEAP reporter activity,RAW-Dual [2]; [7],1.1
same,NF-kB SEAP reporter activity,RAW-Dual [2]; [8],1.12
CC(NCc1ccc(OCc2cccc(F)c2)cc1)C(N)=O.CS(=O)(=O)O (configuration not stated),NF-kB SEAP reporter activity,RAW-Dual [1]; [4],1.73
same,NF-kB SEAP reporter activity,RAW-Dual [1]; [5],1.07
CC(NCc1ccc(OCc2cccc(F)c2)cc1)C(N)=O.CS(=O)(=O)O (configuration not stated) (library stock concentration (final ~1000-fold dilution): 10 mM),NF-kB SEAP reporter activity,RAW-Dual [2]; agonist: LPS (TLR4) 0.1 ug/mL,1.08
same,NF-kB SEAP reporter activity,RAW-Dual [2]; [6],1.17
same,NF-kB SEAP reporter activity,RAW-Dual [2]; [7],0.813
same,NF-kB SEAP reporter activity,RAW-Dual [2]; [8],1.1
C[N+]1(C)C2CC(OC(=O)C(O)(c3cccs3)c3cccs3)CC1C1OC12 (configuration not stated),NF-kB SEAP reporter activity,RAW-Dual [1]; [4],1.28
same,NF-kB SEAP reporter activity,RAW-Dual [1]; [5],1.02
C[N+]1(C)C2CC(OC(=O)C(O)(c3cccs3)c3cccs3)CC1C1OC12 (configuration not stated) (library stock concentration (final ~1000-fold dilution): 10 mM),NF-kB SEAP reporter activity,RAW-Dual [2]; agonist: LPS (TLR4) 0.1 ug/mL,0.892
same,NF-kB SEAP reporter activity,RAW-Dual [2]; [6],1.02
same,NF-kB SEAP reporter activity,RAW-Dual [2]; [7],1.01
same,NF-kB SEAP reporter activity,RAW-Dual [2]; [8],1.12
O=C(O)CCNc1cc(N2CCc3ccccc3CC2)nc(-c2ccccn2)n1,NF-kB SEAP reporter activity,RAW-Dual [1]; [4],0.904
same,NF-kB SEAP reporter activity,RAW-Dual [1]; [5],0.904
O=C(O)CCNc1cc(N2CCc3ccccc3CC2)nc(-c2ccccn2)n1 (library stock concentration (final ~1000-fold dilution): 10 mM),NF-kB SEAP reporter activity,RAW-Dual [2]; agonist: LPS (TLR4) 0.1 ug/mL,0.801
same,NF-kB SEAP reporter activity,RAW-Dual [2]; [6],0.993
same,NF-kB SEAP reporter activity,RAW-Dual [2]; [7],0.889
same,NF-kB SEAP reporter activity,RAW-Dual [2]; [8],0.929
Cl.Cl.Fc1ccc(C(c2ccc(F)cc2)N2CCN(C/C=C/c3ccccc3)CC2)cc1 (library stock concentration (final ~1000-fold dilution): 10 mM),NF-kB SEAP reporter activity,RAW-Dual [2]; agonist: LPS (TLR4) 0.1 ug/mL,2.45
same,NF-kB SEAP reporter activity,RAW-Dual [2]; [6],1.44
same,NF-kB SEAP reporter activity,RAW-Dual [2]; [7],0.829
same,NF-kB SEAP reporter activity,RAW-Dual [2]; [8],1.09
Cl.Cl.Fc1ccc(C(c2ccc(F)cc2)N2CCN(C/C=C/c3ccccc3)CC2)cc1,NF-kB SEAP reporter activity,RAW-Dual [1]; [4],1.99
same,NF-kB SEAP reporter activity,RAW-Dual [1]; [5],1.65
CC(C)c1cnn2c(NCc3ccccc3)cc(NCCCCCCN)nc12.Cl,NF-kB SEAP reporter activity,RAW-Dual [1]; [9],2.18
same,NF-kB SEAP reporter activity,RAW-Dual [1]; [10],0.882
CC(C)c1cnn2c(NCc3ccccc3)cc(NCCCCCCN)nc12.Cl (library stock concentration (final ~1000-fold dilution): 10 mM),NF-kB SEAP reporter activity,RAW-Dual [3]; agonist: LPS (TLR4) 0.1 ug/mL,0.271
same,NF-kB SEAP reporter activity,RAW-Dual [3]; [6],0.234
same,NF-kB SEAP reporter activity,RAW-Dual [3]; [7],1.08
same,NF-kB SEAP reporter activity,RAW-Dual [3]; [8],1.5
CCNC(=O)c1cc2c(-c3cc(C(C)(C)O)ccc3Oc3c(C)cc(F)cc3C)cn(C)c(=O)c2[nH]1,NF-kB SEAP reporter activity,RAW-Dual [1]; [9],1.4
same,NF-kB SEAP reporter activity,RAW-Dual [1]; [10],1.84
CCNC(=O)c1cc2c(-c3cc(C(C)(C)O)ccc3Oc3c(C)cc(F)cc3C)cn(C)c(=O)c2[nH]1 (library stock concentration (final ~1000-fold dilution): 10 mM),NF-kB SEAP reporter activity,RAW-Dual [3]; agonist: LPS (TLR4) 0.1 ug/mL,0.903
same,NF-kB SEAP reporter activity,RAW-Dual [3]; [6],1.34
same,NF-kB SEAP reporter activity,RAW-Dual [3]; [7],0.318
same,NF-kB SEAP reporter activity,RAW-Dual [3]; [8],0.842
Cc1cc([N+](=O)[O-])ccc1NS(=O)(=O)c1cc(Cl)ccc1Cl (library stock concentration (final ~1000-fold dilution): 10 mM),NF-kB SEAP reporter activity,RAW-Dual [2]; agonist: LPS (TLR4) 0.1 ug/mL,3.09
same,NF-kB SEAP reporter activity,RAW-Dual [2]; [6],0.67
same,NF-kB SEAP reporter activity,RAW-Dual [2]; [7],0.323
same,NF-kB SEAP reporter activity,RAW-Dual [2]; [8],0.349
Cc1cc([N+](=O)[O-])ccc1NS(=O)(=O)c1cc(Cl)ccc1Cl,NF-kB SEAP reporter activity,RAW-Dual [1]; [4],1.01
same,NF-kB SEAP reporter activity,RAW-Dual [1]; [5],1.41
C=CC(=O)N1CCCC(n2nc(-c3ccc(Oc4ccccc4)cc3)c3c(N)ncnc32)C1 (configuration not stated),NF-kB SEAP reporter activity,RAW-Dual [1]; [4],1.27
same,NF-kB SEAP reporter activity,RAW-Dual [1]; [5],0.621
C=CC(=O)N1CCCC(n2nc(-c3ccc(Oc4ccccc4)cc3)c3c(N)ncnc32)C1 (configuration not stated) (library stock concentration (final ~1000-fold dilution): 10 mM),NF-kB SEAP reporter activity,RAW-Dual [2]; agonist: LPS (TLR4) 0.1 ug/mL,0.397
same,NF-kB SEAP reporter activity,RAW-Dual [2]; [6],0.575
same,NF-kB SEAP reporter activity,RAW-Dual [2]; [7],0.352
same,NF-kB SEAP reporter activity,RAW-Dual [2]; [8],0.557
COc1ccc(COc2ccc(Cc3cnc(N)nc3N)cc2OC)cc1,NF-kB SEAP reporter activity,RAW-Dual [1]; [4],0.936
same,NF-kB SEAP reporter activity,RAW-Dual [1]; [5],1.07
COc1ccc(COc2ccc(Cc3cnc(N)nc3N)cc2OC)cc1 (library stock concentration (final ~1000-fold dilution): 10 mM),NF-kB SEAP reporter activity,RAW-Dual [2]; agonist: LPS (TLR4) 0.1 ug/mL,0.815
same,NF-kB SEAP reporter activity,RAW-Dual [2]; [6],0.76
same,NF-kB SEAP reporter activity,RAW-Dual [2]; [7],0.875
same,NF-kB SEAP reporter activity,RAW-Dual [2]; [8],0.899
CN(C)CCSSCCNC(=O)C1CCN(C(=O)CSc2ccc(Cl)cc2)CC1.O=C(O)C(F)(F)F (library stock concentration (final ~1000-fold dilution): 10 mM),NF-kB SEAP reporter activity,RAW-Dual [2]; agonist: LPS (TLR4) 0.1 ug/mL,1.41
same,NF-kB SEAP reporter activity,RAW-Dual [2]; [6],1.38
same,NF-kB SEAP reporter activity,RAW-Dual [2]; [7],1.09
same,NF-kB SEAP reporter activity,RAW-Dual [2]; [8],1.68
CN(C)CCSSCCNC(=O)C1CCN(C(=O)CSc2ccc(Cl)cc2)CC1.O=C(O)C(F)(F)F,NF-kB SEAP reporter activity,RAW-Dual [1]; [4],1.07
same,NF-kB SEAP reporter activity,RAW-Dual [1]; [5],1.24
O=C(O)c1cc2ccccc2[nH]1 (library stock concentration (final ~1000-fold dilution): 10 mM),NF-kB SEAP reporter activity,RAW-Dual [2]; agonist: LPS (TLR4) 0.1 ug/mL,0.919
same,NF-kB SEAP reporter activity,RAW-Dual [2]; [6],0.947
same,NF-kB SEAP reporter activity,RAW-Dual [2]; [7],1.07
same,NF-kB SEAP reporter activity,RAW-Dual [2]; [8],0.965
O=C(O)c1cc2ccccc2[nH]1,NF-kB SEAP reporter activity,RAW-Dual [1]; [4],0.909
same,NF-kB SEAP reporter activity,RAW-Dual [1]; [5],1.08
Cc1cc(Cn2cnc3c2CC(C(=O)O)N(C(=O)C(c2ccccc2)c2ccccc2)C3)ccc1N(C)C (configuration not stated),NF-kB SEAP reporter activity,RAW-Dual [1]; [4],0.927
same,NF-kB SEAP reporter activity,RAW-Dual [1]; [5],1.02
Cc1cc(Cn2cnc3c2CC(C(=O)O)N(C(=O)C(c2ccccc2)c2ccccc2)C3)ccc1N(C)C (configuration not stated) (library stock concentration (final ~1000-fold dilution): 10 mM),NF-kB SEAP reporter activity,RAW-Dual [2]; agonist: LPS (TLR4) 0.1 ug/mL,0.968
same,NF-kB SEAP reporter activity,RAW-Dual [2]; [6],1
same,NF-kB SEAP reporter activity,RAW-Dual [2]; [7],1.01
same,NF-kB SEAP reporter activity,RAW-Dual [2]; [8],0.945
CC1(c2cc(-c3cncnc3)c(F)cc2F)CCSC(N)=N1 (configuration not stated),NF-kB SEAP reporter activity,RAW-Dual [1]; [4],0.639
same,NF-kB SEAP reporter activity,RAW-Dual [1]; [5],0.882
CC1(c2cc(-c3cncnc3)c(F)cc2F)CCSC(N)=N1 (configuration not stated) (library stock concentration (final ~1000-fold dilution): 10 mM),NF-kB SEAP reporter activity,RAW-Dual [2]; agonist: LPS (TLR4) 0.1 ug/mL,1.1
same,NF-kB SEAP reporter activity,RAW-Dual [2]; [6],0.911
same,NF-kB SEAP reporter activity,RAW-Dual [2]; [7],1.06
same,NF-kB SEAP reporter activity,RAW-Dual [2]; [8],0.994
CN1CCCC1CCOC(C)(c1ccccc1)c1ccc(Cl)cc1.O=C(O)/C=C/C(=O)O (configuration not stated),NF-kB SEAP reporter activity,RAW-Dual [1]; [4],1.7
same,NF-kB SEAP reporter activity,RAW-Dual [1]; [5],0.942
CN1CCCC1CCOC(C)(c1ccccc1)c1ccc(Cl)cc1.O=C(O)/C=C/C(=O)O (configuration not stated) (library stock concentration (final ~1000-fold dilution): 10 mM),NF-kB SEAP reporter activity,RAW-Dual [2]; agonist: LPS (TLR4) 0.1 ug/mL,1.32
same,NF-kB SEAP reporter activity,RAW-Dual [2]; [6],0.754
same,NF-kB SEAP reporter activity,RAW-Dual [2]; [7],0.873
same,NF-kB SEAP reporter activity,RAW-Dual [2]; [8],0.64
Cc1ccc(S(=O)(=O)NC(=O)NN2CC3CCCC3C2)cc1 (configuration not stated),NF-kB SEAP reporter activity,RAW-Dual [1]; [4],0.878
same,NF-kB SEAP reporter activity,RAW-Dual [1]; [5],0.974
Cc1ccc(S(=O)(=O)NC(=O)NN2CC3CCCC3C2)cc1 (configuration not stated) (library stock concentration (final ~1000-fold dilution): 10 mM),NF-kB SEAP reporter activity,RAW-Dual [2]; agonist: LPS (TLR4) 0.1 ug/mL,1.34
same,NF-kB SEAP reporter activity,RAW-Dual [2]; [6],1.02
same,NF-kB SEAP reporter activity,RAW-Dual [2]; [7],1.11
same,NF-kB SEAP reporter activity,RAW-Dual [2]; [8],1.03
Cc1noc(C)c1-c1ccc2[nH]c(=O)n3c2c1OCC3c1ccccn1 (configuration not stated),NF-kB SEAP reporter activity,RAW-Dual [1]; [4],1.5
same,NF-kB SEAP reporter activity,RAW-Dual [1]; [5],2.28
Cc1noc(C)c1-c1ccc2[nH]c(=O)n3c2c1OCC3c1ccccn1 (configuration not stated) (library stock concentration (final ~1000-fold dilution): 10 mM),NF-kB SEAP reporter activity,RAW-Dual [2]; agonist: LPS (TLR4) 0.1 ug/mL,1.61
same,NF-kB SEAP reporter activity,RAW-Dual [2]; [6],1.67
same,NF-kB SEAP reporter activity,RAW-Dual [2]; [7],0.501
same,NF-kB SEAP reporter activity,RAW-Dual [2]; [8],1.34

# — the supplement of paper PMC10037445
